In the RNAGym collection of RNA variant scans (doi:10.1073/pnas.2313332121):
Variants at the floor of the assay are shown more often than the library holds them.

B1: TPR 5TU (parent)
chain: GGAUCUUCUCGAUCUAACAAAAAAGACAAAUCUGCCACAAAGCUUGAGAGCAUCUUCGGAUGCAGAGGCGGCAGCCUUCGGUGGCGCGAUAGCGCCAACGUUCUCAACUAUGACACGCAAAACGCGUGCUCCGUUGAAUGGAGUUUAUCAUG

Variants of: B1
Assay: polymerase ribozyme fitness, log enrichment relative to wild type (log ratio); higher = more active; in vitro selection for triplet polymerase activity
Method in brief: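 Frozen incubation at −7 °C formed the core of a single, triplicate in vitro selection round applied to PCR-built, transcribed mutant libraries of each subunit of a heterodimeric triplet polymerase ribozyme. Extended constructs were gel-excised, captured with streptavidin beads and amplified by RT-PCR, and input and output libraries were Illumina-sequenced with a filter of ≥10 input reads and ≥1 read per output. Fitness is the logarithm of genotype enrichment relative to wild-type enrichment, with inverse-variance-weighted replicate averaging, and the logarithm is base 2.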

| Variant | polymerase ribozyme fitness (log ratio) |
| --- | --- |
| GGAUCUUCUCGGUCUAACAAAAAAGACAAAUCUGCCACAAAGCUUCAGAGCAUCUUCGGAUGCAGAGGCGGCAGCCUUCGGUAGGGCGAUAGCGCCAACGUUCUCAACUAUGACACGCAAAACGCGUGCUACGUUGAAUGGAGUUUAUCAUG [A12G G46C G83A C85G C131A] | ≤ -4.2 |
| GGAUCUUCUCGGUCUAACAAAAAAGACAAAUCUGCCACAAAGCUUGAGAUCAUCUUCGGAUGCAGAGGCGGCAGCCUUCGGUAGCGUGAUAGCGCCAACGUUCUCAACUAUGAUACGGAAAACGCGUGCUCCGUUGAGUGUAGUUUAUCAUG [A12G G50U G83A C87U C114U C118G A138G G141U] | ≤ -4.2 |
| GGAUCUUCUCGGUCUAACAAAAAAGACAAAUCUGCCACAAAGCUUGAGAUCAUCUUCGGAAGCAGAGACGGCAGCCUUCGGUGGCGCGAUGGCGCGAACGUUCUCGACUAUGACACGCAAAACGCGUGCUCCGUUGAAUGGAGUUUAUCAUG [A12G G50U U61A G68A A91G C96G A106G] | ≤ -4.2 |
| GGAUCUUCUCGGUCUAACAAAAAAGACAAAUCUGCCACAAAGCUUGAGAGCAUCUUCAGAUGCAGAGGCGGCAGCCUUCGGUGGCGCGAUUGCGCCAACGUUCUCAACGAUGACACGCAAAACGCGUGCUCCGUUGAAUGGAGUUUAUCAUG [A12G G58A A91U U109G] | -3.78 |
| GGAUCUUCUCGGUCUAACAAAAAAGACAAAUCUGCCACAAAGCUUGAGAGCAUCUUCGGAUUCAGCGGCGGCAGCCUUCGAUGGCGCGAUAGCGGCAACGUUCUCAACUAUGAAACGCAAAACGCGUGCUCCGUUGAAUGGAGUUUAUCAUG [A12G G62U A66C G81A C95G C114A] | ≤ -4.2 |
| GGAUCUUCUCGGUCUAACAAAAAAGACAAAUCUGCCACAAAGCUUGAGAGCAUCUUCGGAUGCAGAGGCGGCAGCCUUCCCUGGCGCGAUAGCGCCAACGUUCUCAACUAUGACACGUAAAACGCGUGCUCCGUAGAAUGGAGUUUAUCAUG [A12G G80C G81C C118U U135A] | -1.66 |
| GGAUCUUCUCGGUCUAACAAAAAAGACAAAUCUGCCACAAAGCUUGAGAGCAUCUUCGGAUGCAGAGGCGGCAGCCUUCGGUAGCGCGAUAGCGCCAACGUUCUCAACUAUGACAAGCAAAACGCGUGCUCCGUUGAAUGCAGUUUAUCAUG [A12G G83A C116A G141C] | ≤ -4.2 |
| GGAUCUUCUCGGUCUAACAAAAAAGACAAAUCUGCCACAAAGCUUGAGAGCAUCUUCGGAUGCAGAGGCGGCAGCCUUCGGUCGCGCGAUAGCGCCAACGUUCUCAACUAUGACACGCAAAACGCGUGCUCCGUUGAAUGGAGUUUAUCAUG [A12G G83C] | -0.586 |
| GGAUCUUCUCGGUCUAACAAAAAAGACAAAUCUGCCACAAAGCUUGAGAGCAUCUUCGGAUGCAGAGGCGGCAGCCUUCGGUGACGCGAUAGCGCCAACGUUCUCAACUAUGACACGCAAAACGCGUGCUCCGUUGAAUGGAAUUUGUCAUG [A12G G84A G143A A147G] | -3.25 |
| GGAUCUUCUCGGUCUAACAAAAAAGACAAAUCUGCCACAAAGCUUGAGAGCAUCUUCGGAUGCAGAGGCGGCAGCCUUCGGUGGCGCAAUAGCGCCAACGUUCUCAACCAUGACACGCAAAACGCGUGCUCCGUUGAAUGGCGUUUAUCAUG [A12G G88A U109C A142C] | -4.12 |
| GGAUCUUCUCGGACUAACCAAAAAGACAAAUCUGCCACAAAGCUUGAGAGCAUCUUCGGAUGCAGAGGCGGCAGCCUUCGGUGGCGCGAUACCGCCAAUGUUCUCAACUAUGACACGCAAAACCCGUGCUCCGUUGAAUGGAGUUUAGCAUU [A12G U13A A19C G92C C99U G124C U148G G152U] | ≤ -4.2 |
| GGAUCUUCUCGGCCUAACAAAAAAGACAAAUCUGCCACAAAGCUUGAGAGCAUCUUCGGAUGCAGAGGCGGCAGCCUUCGGUGGCUCGAUAGCGCUAACGUUCUCAACUAUGACACGCAAAACGUGUGCUCCGUUGAAUGGCGUUUAUCAUG [A12G U13C G86U C96U C125U A142C] | ≤ -4.2 |
| GGAUCUUCUCGGUCUAACAAAAAAGACAAAAGUGCCACAAAGUUUGCGAGCAUCUUCGGAUGCAGAGGCGGCAGCCUUCGGUGGCGCGAUAGCGCCAACGUUCUCAACUAUGACACGCAAAAUGCGUGCUCCGUUGAAUGGAGUUUAUCAUG [A12G U31A C32G C43U A47C C123U] | ≤ -4.2 |
| GGAUCUUCUCGGUCUAACAAAAAAGACAAACCUGCCACAAAGAUUGAGAGCAUCUUCGGAUGCAGAGGCGGCAGCCUUCGGUGGCGCGAUAGCGCCAACGUUCUCAACUAUGACACGCAAAACGCGUGCUCCGUUGAAUGGAGUUUAUCAUG [A12G U31C C43A] | ≤ -4.2 |
| GGAUCUUCUCGGUCUAACAAAAAAGACAAAUCUGCCACAAAGCUUGAGAGCAACUUCGGAUGCAGACGCGGCAGUUUUCGGUGGCGCGAUAGCGCUAACGUUCUCAACUAUGACACGCAAAACGCGUGCGCCGUUGAAUGGAGUUUAUCAUG [A12G U53A G67C C75U C76U C96U U130G] | ≤ -4.2 |
| GGAUCUUCUCGGUCUAACAAAAAAGACAAAUCUGCCACAAAGCUUGAGAGCAACUUCGGAUGCAGAGACGGCAGCCUUCGGUGGCGCGAUAGCGCCAACGUUCUCAUCUAUGACACGCAAAACGCGUGCUCCGUUGAAUGGAGUUUAUCAUG [A12G U53A G68A A107U] | ≤ -4.2 |
| GGAUCUUCUCGGUCUAACAAAAAAGACAAAUCUGCCACAAAGCUUGAGAGCAGCUUCGAAUGCAGAGGCGGCAGCCUUCGGUGGCGCGAUAGCGGCACCGUUCUCAACUAUGACACGCAAAACGCGUGCUCCGUUGAAUGGAGUUAAUCAUG [A12G U53G G59A C95G A98C U146A] | -1.26 |
| GGAUCUUCUCGGUCUAACAAAAAAGACAAAUCUGCCACAAAGCUUGAGAGCAUCAUCGGAUGCAGAGGCGGCAGCCUUCGGUGGCGCGAUAGCGCCAACGUUCUCAACUAUGACACGCAAAACGCGUGCUCCGUUGAAUGGAGUUUAUCAUG [A12G U55A] | 0.668 |
| GGAUCUUCUCGGUCUAACAAAAAAGACAAAUCUGCCACAAAGCUUGAGAGCAUCAUCGGAGGCAGAGGCGGUAGCCUUCGGUGGCGCGAUAGUGCCAACGUUCUCAACUAUGACACGCAAAACGCGUGCUCCGUUGAAUGGAGUUUAUCAUG [A12G U55A U61G C72U C93U] | ≤ -4.2 |
